# Patent publication US20240115720A1, “ANTIBODY-PYRROLOBENZODIAZEPINE DERIVATIVE CONJUGATE” (MEMORIAL SLOAN KETTERING CANCER CENTER, priority 2021, published 2024)
# T1: Histidine-tagged DLL3 antigen (DLL3-His) (Homo sapiens, UniProt Q9NYJ7)
# T1 sequence (Q9NYJ7 27-479): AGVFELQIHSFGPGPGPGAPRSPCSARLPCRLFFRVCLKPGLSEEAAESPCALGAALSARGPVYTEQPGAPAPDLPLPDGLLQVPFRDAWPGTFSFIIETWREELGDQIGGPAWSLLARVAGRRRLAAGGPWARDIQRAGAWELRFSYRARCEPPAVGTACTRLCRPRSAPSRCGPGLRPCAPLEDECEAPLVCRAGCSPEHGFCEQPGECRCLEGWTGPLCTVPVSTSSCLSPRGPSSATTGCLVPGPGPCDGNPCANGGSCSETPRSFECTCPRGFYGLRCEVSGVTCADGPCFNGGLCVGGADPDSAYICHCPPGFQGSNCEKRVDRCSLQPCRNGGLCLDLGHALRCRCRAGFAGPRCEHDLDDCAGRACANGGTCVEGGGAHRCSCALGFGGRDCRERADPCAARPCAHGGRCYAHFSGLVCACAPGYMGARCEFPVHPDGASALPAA
# T2: DLL3 (Homo sapiens, UniProt Q9NYJ7)
# T2 sequence (Q9NYJ7 27-618): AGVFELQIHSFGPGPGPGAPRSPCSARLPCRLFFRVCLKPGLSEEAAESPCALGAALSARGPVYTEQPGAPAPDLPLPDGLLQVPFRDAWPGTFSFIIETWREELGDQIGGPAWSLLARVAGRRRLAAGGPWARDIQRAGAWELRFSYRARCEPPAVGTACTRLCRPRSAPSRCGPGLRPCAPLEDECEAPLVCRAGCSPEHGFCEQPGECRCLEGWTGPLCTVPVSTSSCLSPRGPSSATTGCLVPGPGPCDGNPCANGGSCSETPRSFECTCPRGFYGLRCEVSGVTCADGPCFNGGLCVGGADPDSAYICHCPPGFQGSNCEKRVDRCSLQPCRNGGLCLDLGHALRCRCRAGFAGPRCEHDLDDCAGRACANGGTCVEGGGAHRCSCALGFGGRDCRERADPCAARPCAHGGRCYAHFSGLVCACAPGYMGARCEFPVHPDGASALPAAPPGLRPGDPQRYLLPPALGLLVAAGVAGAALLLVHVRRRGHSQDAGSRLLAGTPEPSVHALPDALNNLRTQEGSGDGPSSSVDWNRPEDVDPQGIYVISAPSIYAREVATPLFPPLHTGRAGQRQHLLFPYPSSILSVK
# T3: DLL1 (Homo sapiens, UniProt O00548)
# T3 sequence (O00548 18-723): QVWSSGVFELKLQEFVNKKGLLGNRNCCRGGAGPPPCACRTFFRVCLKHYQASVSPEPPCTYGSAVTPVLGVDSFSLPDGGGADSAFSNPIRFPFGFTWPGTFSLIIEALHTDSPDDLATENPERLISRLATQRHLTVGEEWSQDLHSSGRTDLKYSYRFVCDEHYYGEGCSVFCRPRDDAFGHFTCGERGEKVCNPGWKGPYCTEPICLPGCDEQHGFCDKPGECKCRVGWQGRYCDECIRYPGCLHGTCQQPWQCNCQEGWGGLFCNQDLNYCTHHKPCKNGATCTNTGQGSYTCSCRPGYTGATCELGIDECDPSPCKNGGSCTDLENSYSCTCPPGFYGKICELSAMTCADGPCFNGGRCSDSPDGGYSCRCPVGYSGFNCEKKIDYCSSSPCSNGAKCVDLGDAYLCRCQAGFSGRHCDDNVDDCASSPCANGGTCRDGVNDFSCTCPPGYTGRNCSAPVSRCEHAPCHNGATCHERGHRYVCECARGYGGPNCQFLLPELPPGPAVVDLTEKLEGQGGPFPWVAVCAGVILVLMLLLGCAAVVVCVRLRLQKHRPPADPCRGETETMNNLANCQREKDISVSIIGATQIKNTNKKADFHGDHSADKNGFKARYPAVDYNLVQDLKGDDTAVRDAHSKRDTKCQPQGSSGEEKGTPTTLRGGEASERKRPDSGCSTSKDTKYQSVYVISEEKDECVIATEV
# Tests used:
# [1] = target: T1, Histidine-tagged DLL3 antigen (DLL3-His); assay: Pairwise epitope binning, Carterra array SPR; conditions: pairwise competition for binding to DLL3-His
# Procedure: The panel of purified anti-DLL3 monoclonal antibodies and the reference monoclonal antibody were subjected to pairwise epitope binning on a Carterra® array surface plasmon resonance (SPR) assay platform (Carterra® Inc., Salt Lake City UT) where each monoclonal antibody was tested for the capture of Histidine-tagged DLL3 antigen (DLL3-His), and also for competing with every other antibody in the panel for the binding to DLL3-His. The antibodies were immobilized on a HC200M chip (ligand) through standard amine coupling techniques by the print array method. Then in each cycle antigen was injected across the entire array followed by a single antibody (analyte). At the end of each cycle the surface was regenerated to remove antigen and analyte before a new cycle started. As shown in the Table below, three different bins were identified with the panel with 7-I1-B and 2-C8-A mapping to bin 2 while 6-G23-F was in bin 3 and 10-O18-A was in bin 1.
# [2] = target: T2, DLL3; assay: Selectivity of binding among delta-like ligands (FIG. 11)
# [3] = target: T3, DLL1; assay: as above
# [4] = target: DLL4 (Homo sapiens, UniProt Q9NR61); assay: as above
# DLL4, sequence (Q9NR61 27-685): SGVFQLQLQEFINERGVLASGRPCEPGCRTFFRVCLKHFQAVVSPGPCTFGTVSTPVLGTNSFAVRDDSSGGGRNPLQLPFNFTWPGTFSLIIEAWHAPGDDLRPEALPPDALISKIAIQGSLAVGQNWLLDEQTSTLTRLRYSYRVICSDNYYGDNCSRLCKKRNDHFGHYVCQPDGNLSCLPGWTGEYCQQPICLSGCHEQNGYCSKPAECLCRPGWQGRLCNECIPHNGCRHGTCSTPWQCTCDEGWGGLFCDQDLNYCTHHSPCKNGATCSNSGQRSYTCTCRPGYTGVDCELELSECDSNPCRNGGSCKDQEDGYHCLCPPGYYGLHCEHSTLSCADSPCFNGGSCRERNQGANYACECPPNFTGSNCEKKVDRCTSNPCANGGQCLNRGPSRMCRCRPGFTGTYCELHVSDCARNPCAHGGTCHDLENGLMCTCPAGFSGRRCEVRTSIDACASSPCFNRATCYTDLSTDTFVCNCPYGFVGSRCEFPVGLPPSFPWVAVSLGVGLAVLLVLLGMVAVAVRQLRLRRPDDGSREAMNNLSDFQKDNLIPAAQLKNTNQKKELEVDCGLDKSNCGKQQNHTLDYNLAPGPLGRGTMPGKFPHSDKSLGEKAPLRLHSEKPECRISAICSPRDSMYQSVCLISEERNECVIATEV
# [5] = test system: 293 (negative control); assay: Flow cytometry binding to 293 cells (negative control); conditions: 10 μg/ml
# Procedure: The four monoclonal antibodies (6-G23-F, 2-C8-A, 7-I1-B and 10-O18-A) were tested for their ability to bind to mouse and cynomolgous DLL3 as well as endogenous human DLL3 by flow cytometry. For this purpose, HEK293 cells were transfected with plasmid DNA encoding full-length human, mouse or cynomolgous DLL3 and used in the experiment. Briefly […] transfected HEK293 cells or NCI-H82 primary cells were added in FACS buffer PBS 0.5% BSA to the wells of a 96 well U bottom plate and purified monoclonal added to 10 μg/ml. After 30 minutes incubation at 4° C. the cells were washed 3 times in FACS buffer and incubated with a PE labelled F(ab)2 anti-mouse IgG H and L 2nd stage. After another 30 minutes incubation at 4° C. the cells were washed three times in FACS buffer and analyzed on the flow cytometer. Data are presented at the ratio of the Mean Fluorescent Intensity for the monoclonal divided by the background staining with the 2nd stage.
# [6] = target: T2, DLL3; assay: 4/37 internalization assay (staining at 4° C. versus 37° C., flow cytometry); format: cell-based; design: endogenous in cells; host or cells: NCI-H82; conditions: NCI-H82 cells, compared with reference monoclonal antibody SC16
# Procedure: The four monoclonal antibodies (6-G23-F, 2-C8-A, 7-I1-B and 10-O18-A) were compared for their ability to internalize DLL3 by comparing the staining at 4° C. with that at 37° C. A reference monoclonal antibody SC16, which is known to internalize via DLL3 and to have ADC activity, and which was previously reported in the literature, was used as the positive control for internalization. NCI-H82 cells in exponential growth were harvested with trypsin/EDTA, washed once in RPMI containing 10% fetal calf serum (FCS) and resuspended in DMEM supplemented with 10% FCS at 2×10^7 cells/ml. 100 μl (2×10^6 cells) were added to U bottom 96 well plates. The test monoclonal antibodies (6-G23-F, 2-C8-A, 7-I1-B or 10-O18-A) or the reference monoclonal antibody were added to separate wells to give a final concentration of 10 μg/ml in duplicate plates. […] After 30 minutes incubation at 4° C. the cells were washed three times in cold wash buffer and either fixed in PBS 0.5% paraformaldehyde and analyzed by flow cytometry within 48 hours. The mean fluorescent intensity (MFI) ratios calculated by dividing the MFI obtained from the control plate (which incubated with the antibodies at 4° C.) by the corresponding MFI obtained from the experimental plate (which incubated with the antibodies at 37° C.) was taken as a relative measure of internalization. […]
# [7] = test system: NCI-H82 cells; assay: Fab ZAP assay (saporin toxin delivery, cytotoxicity-based internalization); design: species or system human; conditions: Fab ZAP 4.4 nM, 3-4 days, Cell Titre Glow
# [8] = target: T2, DLL3; assay: Quenching Internalization Assay (F(ab) Dy650-QC1); format: cell-based; design: NCI-H82 cells in exponential growth were harvested with trypsin/EDTA; endogenous in cells; host or cells: NCI-H82; conditions: NCI-H82 cells, 4 hours at 37° C.; reference monoclonal set at 100% internalization
molecule,measurement,setting,value
"6-G23-F: anti-DLL3 monoclonal antibody, VH SEQ ID NO: 32 and VL SEQ ID NO: 37 (antibody, V domains shown) VH: QVQLVQSGAEVKKPGASVKVSCKASGYTFTSYYIHWVRQAPGQGLEWMGIIDPSDGSTNYAQKFQGRVTMTRDTSTSTVYMELSSLRSEDTAVYYCARDREYNYYGLDVWGQGTTVTVSS VL: [left out - about 100 residues]PTFGQGTKVEIK",Epitope Bin,[1],3
same,binding to DLL3,[2],selectively bind DLL3
same,binding to DLL1,[3],not DLL1 or DLL4
same,binding to DLL4,[4],not DLL1 or DLL4
same,293 (negative control) (ratio of MFI for the monoclonal divided by background staining with the 2nd stage),[5],1.32
same,ability to internalize DLL3,[6],able to internalize on binding DLL3 but not to the extent of the reference monoclonal antibody
"10-O18-A: anti-DLL3 monoclonal antibody, VH SEQ ID NO: 22 and VL SEQ ID NO: 27 (antibody, V domains shown) VH: QVQLQESGPGLVKPSETLSLTCTVSGGSINSYYWSWIRQPPGKGLEWIGYIFYSGITNYNPSLKSRVTISLDTSKNQFSLKLSSVTAADTAVYYCARIGVAGFYFDYWGQGTLVTVSS VL: [left out - about 100 residues]",FAB ZAP % SC16 Max Killing,[7],88.0%
same,Epitope Bin,[1],1
same,binding to DLL3,[2],selectively bind DLL3
same,binding to DLL1,[3],not DLL1 or DLL4
same,binding to DLL4,[4],not DLL1 or DLL4
same,293 (negative control) (ratio of MFI for the monoclonal divided by background staining with the 2nd stage),[5],0.60
same,ability to internalize DLL3,[6],able to internalize on binding DLL3 but not to the extent of the reference monoclonal antibody
same,Dy light Dy658 Fluorescence (% of the Control Reference Monoclonal Antibody),[8],62.2%
